Laboratory results: PubChem BioAssay AID1963576 (National Center for Advancing Translational Sciences (NCATS), 2024)
The campaign covered roughly 46,000 compounds. About 60 (0.1%) were called active. Not shown: some 3% with an inconclusive outcome. The call rests on the fitted dose curve; in most records, active means well fitted inhibition curve with a large enough effect; inconclusive means small, poorly fitted or top-dose-only effect; inactive means no such curve, though single readings can be large or run the other way. Some of the results follow.

Test: Primary qHTS assay for Inhibitors of ovarian cancer metastasis using an organotypic tumor microenvironment (TME) model. Further: nearly all actives have a fitted effect of over 65% in size.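 On activity change, negative = inhibition: plate controls were DMSO wells for no effect and tomatine positive control wells for full effect.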
Conditions: SKOV3ip1-GFP adhesion/invasion on 3D omental model, fluorescence; series mostly up to 45.8 µM; activity change, negative = inhibition: at the top concentration
In short: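 Adhesion/invasion was scored as fixed GFP-labeled SKOV3ip1 cell counts (488/509 nm), normalized to DMSO and tomatine controls. Cancer cells in serum-free medium, with four compound doses (0.36-46 umol/L), sat 2 hr at RT then 16 hr at 37 C on a 48 hr fibroblast/mesothelial/ECM culture.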

SMILES	activity change, negative = inhibition	outcome
Cc1ccc(OCC(=O)Nc2ccc(C(=O)OCc3cc(=O)n4nc(C5CC5)sc4n3)cc2)cc1	inactive: -7.45%	–
COc1ccc(NC(=O)c2oc3c(c2C)-c2nn(Cc4c(F)cccc4Cl)cc2CC3)c(OC)c1	–	inactive
Cc1ccc(NC(=O)C(=O)NCC(c2cccnc2)N2CCN(C)CC2)cc1C (stereo not given)	inactive: -18.8%	–
CCOc1ccc(Nc2oc(/C=C/c3ccc(F)cc3)nc2C#N)cc1	–	inactive
COc1ccc(CNc2nc3c(S(=O)(=O)c4ccccc4)nnn3c3ccc(Cl)cc23)cc1	inactive: 2.06%	–
O=C1CCSC2(C(=O)N(Cc3ccc(F)cc3)c3ccccc32)N1c1ccccc1 (stereo not given)	inactive: -7.95%	–
CCOC(=O)c1ccccc1NC(=O)CSc1ccc(-c2sc(-c3ccccc3)nc2C)nn1	inactive: 1.73%	–
COc1ccc(OC)c(-c2nc(Nc3ccccc3C)sc2CC(=O)O)c1	inactive: -19.8%	–
COc1ccc(C2C(C(=O)Nc3ccccc3)=C(C)Nc3nc(-c4ccccc4)nn32)cc1OC (stereo not given)	inactive: -27.3%	–
Cc1cc(C)n(-c2nc3ccccc3nc2Nc2cccc(C(F)(F)F)c2)n1	inactive: 9.02%	–
COc1ccc(-c2nnc(Nc3ccc(OCC(N)=O)cc3)c3ccccc23)cc1	inactive: -27.9%	–
O=C(CSc1nc(=O)[nH]c2c1CCCC2)Nc1cc(C(F)(F)F)ccc1Cl	inactive: -6.79%	–
Fc1ccccc1CNCCCSc1nnnn1-c1ccccc1	inactive: 5.94%	–
CCc1ccc(NC(=O)c2cc3ccccn3n2)cc1	–	inactive
COc1ccc(-n2cc(-c3ccccc3)c3c(SC(C)C(C)=O)ncnc32)cc1 (stereo not given)	inactive: 2.27%	–
CCOC(=O)c1cccc(NC(=O)c2cc3c(Cl)nc4ccc(C)cc4c3s2)c1	inactive: -0.293%	–
COc1cccc(C(=O)Nc2ccccc2C(=O)OCc2cc(=O)n3nc(C)sc3n2)c1	inactive: 16.2%	–
CC(C)c1ccc(NC(=O)C2CCCN(S(=O)(=O)c3ccc(Br)s3)C2)cc1 (stereo not given)	inactive: 1.79%	–
COc1ccc(NC(=O)C(=O)NCCc2ccccc2)cc1OC	–	inactive
CC(C)CCNC(=O)CN1C(=O)COc2ccc(S(=O)(=O)N3CCOCC3)cc21	–	inactive

SMILES	activity change, negative = inhibition	outcome
CCc1ccc(CNC(=O)c2ccc3c(c2)nc2n3CCOC2)cc1	inactive: -12.4%	–
COc1ccc(-c2noc(C3CC(=O)N(c4ccc(C)c(F)c4)C3)n2)c(OC)c1 (stereo not given)	inactive: 3.57%	–
COc1ccccc1CNC(=O)CSc1ncc2c(n1)-c1ccccc1N(Cc1ccc(C)cc1)S2(=O)=O	inactive: 2.83%	–
CCN1CCN(C(=O)c2ccc3c(c2)N(Cc2cccc(Cl)c2)C(=O)c2ccccc2S3(=O)=O)CC1	–	inactive
Cc1ccc(C)c(NC(=O)C(C)n2c(=O)cc(C(F)(F)F)c3c(C)nn(C)c32)c1 (stereo not given)	inactive: 0.94%	–
CCc1nnc(SCc2ccc(F)cc2Cl)c2cc3sccc3n12	inactive: 3.03%	–
CC1CCC(NC(=O)c2ccc3c(c2)N(Cc2cccc(F)c2)C(=O)c2ccccc2S3)CC1 (stereo not given)	inactive: -3.3%	–
COc1cc(OC)c(OC)cc1CN1CCc2nc(N3CCN(c4ncccn4)CC3)ncc2C1	inactive: 4.22%	–
c1ccc(CNc2nc(NCc3ccccc3)c3ccccc3n2)cc1	inactive: -3.39%	–
Fc1ccc(-c2cc(-c3nc(-c4cccc(Cl)c4)no3)[nH]n2)cc1	–	inactive
COC(=O)c1cc2sccc2n1CC(=O)Nc1ccc(C)cc1C	inactive: 0.408%	–
COc1cc2c(cc1OC)C(COc1ccc3c(C)cc(=O)oc3c1)N(C(=O)Cc1ccccc1)CC2 (stereo not given)	inactive: -1.09%	–
CCN(C(=O)CCc1nc(-c2ccc(C)cc2)no1)c1cccc(Cl)c1	inactive: -5.14%	–
Cc1ccc(-c2nc(NC(=O)CSc3ccc4ccccc4n3)ns2)cc1	inactive: -7.79%	–
Cc1ccccc1NC(=O)c1nc(S(C)(=O)=O)ncc1N(Cc1ccco1)Cc1sccc1C	inactive: -10.3%	–
Cc1ccccc1OCC(=O)Nc1ccc(C(=O)OCc2cc(=O)n3ccsc3n2)cc1	inactive: 30%	–
Cc1ccc(S(=O)(=O)c2cn(Cc3ccccc3)c3cc(N4CCCC4)c(F)cc3c2=O)cc1	inactive: 2.76%	–
COc1cccc(CNC(=O)c2ccc3nc(-c4ccccc4)c(-c4ccccc4)nc3c2)c1OC	inactive: -4.52%	–
Cc1cc(C)c(Cn2c3ccccc3c3cnn(CC(=O)NCCC4=CCCCC4)c(=O)c32)c(C)c1	inactive: -8.19%	–
CCOc1ccccc1C(=O)NC1(C(F)(F)F)C(=O)Nc2c1c(=O)[nH]c(=O)n2-c1ccccc1 (stereo not given)	inactive: 0.317%	–

SMILES	activity change, negative = inhibition	outcome
O=C(NCc1ccc(Cl)cc1)c1ccc2c(c1)NC(=O)C(CS(=O)(=O)Cc1ccc(F)cc1Cl)N2 (stereo not given)	inactive: -5.82%	–
Clc1ccc(-c2csc(-c3nc(-c4ccc(Br)s4)cs3)n2)cc1	inactive: 3.58%	–
Cc1ccc(NC(=O)Cn2nnc(C(=O)NCCc3ccccc3)c2N)cc1	–	inactive
CCC(C)Sc1oc(-c2ccco2)nc1S(=O)(=O)c1ccc(Cl)cc1 (stereo not given)	inactive: -11.3%	–
COc1ccc(Nc2nnc(-c3ccc(C)c(S(=O)(=O)NCc4nc5ccccc5[nH]4)c3)c3ccccc23)cc1	inactive: -8.7%	–
CCc1ccc(NC(=O)C2CCCN(S(=O)(=O)c3cccc4nsnc34)C2)cc1 (stereo not given)	inactive: -13.6%	–
COc1ccc(C)cc1NC(=O)c1cc2ccccn2n1	–	inactive
O=C(CCN1CCN(CCO)CC1)Nc1ccc(Br)cc1	inactive: -6.57%	–
Cc1cccc(CN2C(=O)c3ccccc3S(=O)(=O)c3ccc(C(=O)N(C)Cc4ccccc4)cc32)c1	inactive: 29.3%	–
O=C1CC(c2nnc(Cc3c(F)cccc3Cl)o2)CN1c1ccccc1 (stereo not given)	inactive: -2.39%	–
Cc1ccc(Nc2c(-c3ccc(N4CCOCC4)cc3)nc3cccc(C)n23)cc1	inactive: -24.5%	–
Cc1ccc(NC(=O)c2c(C)nc3sc(C(=O)Nc4ccc(F)cc4)c(N)c3c2-c2ccc(Cl)cc2)c(C)c1	inactive: -1.76%	–
COc1cccc(NC(=O)CCc2nnc3n(Cc4ccccc4Cl)c(=O)c4ccccc4n23)c1	inactive: -4.95%	–
Cc1ccc(-c2nnc3ccccc3c2C(=O)Nc2ccc(C)c(F)c2)cc1	inactive: 4.03%	–
CCOC(=O)c1ccc(NC(=O)c2sc3ccccc3c2Cl)cc1	–	inactive
COc1ccccc1C(=O)Nc1nnc(S(=O)(=O)N2CCN(c3ccc(F)cc3)CC2)s1	inactive: -12%	–
CCOC(=O)c1ccc(NC2(c3ccccc3)C(=O)c3ccccc3C2=O)cc1	inactive: 1.21%	–
CCOc1ccccc1C(=O)Nc1ccc(-n2nncc2-c2ccccc2)cc1	–	inactive
COc1ccccc1NC(=O)CN(c1cc(C)cc(C)c1)S(=O)(=O)c1c(C)[nH]c(=O)[nH]c1=O	inactive: 3.68%	–
COc1cc(OC)c(NS(=O)(=O)c2cc3c(cc2C)N(C(C)=O)CCO3)cc1Cl	inactive: -7.84%	–
